The chains are these.
B1: chr7:139079551:139079652:-|CDS|ENSG00000105939|unk|total|mutant (ssRNA)
RNA: GGGAGUUCUACAGUCCGACGAUCAAUGCUGAUGGAGUGGCCACAGAUAUAACUUCUACCAGAUCCUUAAAUUACAAAAGCACCCGCAGCGGUCACAGAGAAAUAUCAUCACCCCGGAUUCAGGAUGCUGGACCUGCUUCCCGACAACAGAGGAUUGAGCAUCA
B2: chr12:39550845:39550946:-|3pUTR|ENSG00000173208|unk|total|mutant (ssRNA)
RNA: GGGAGUUCUACAGUCCGACGAUCGGUUCCAAGUACCGUUUCAUAUUUGGCAACCGAUUCAUCUUAUUCUAAUAUGUUUGGAACCGCUUUUUGAUUCAAUGAGUCCCGGAAAAUCUGUUACACAUUGAAACCCAAGUCCAGAGACAACAGAGGAUUGAGCAUCA
B3: chr1:162785649:162785750:+|3pUTR|ENSG00000162733|unk|total|mutant (ssRNA)
RNA: GGGAGUUCUACAGUCCGACGAUCUGAAUGUUGUUUUUUUGAAUGAACAUAAGACCGAAACAAAAACUUCUCAUCCAGUUAACCCGAGUGAAUGCCGGGAGAAUUGUUUUGCUUGUAACAUGGAGAGUUUAUUUUCAAGUGAGGCAACAGAGGAUUGAGCAUCA
B4: chr2:9585027:9585123:-|3pUTR|ENSG00000134308|msi1_unk|FALSE|overlapping (ssRNA)
RNA: GGGAGUUCUACAGUCCGACGAUCGGAAAACUUCAUUCCUUGAUUUGUGUUUGUCUUGGCCUUCCUGGUGUGCAGUACUGCUGUAGAAAAGUAUUAAUAGCUUCAUUUCAUAUAAACAUAAGUAACUCCCAAACACUUAUGUAGCAACAGAGGAUUGAGCAUCA
B5: chr15:74179522:74179623:-|3pUTR|ENSG00000137868|msi1|FALSE|unique (ssRNA)
RNA: GGGAGUUCUACAGUCCGACGAUCUCAUGACUCAGACCAGGUCCCACACUGAGCUGCCCACACUCGAGAGCCAGAUAUUUUUGUAGUUUUUAUGCCUUUGGCUAUUAUGAAAGAGGUUAGUGUGUUCCCUGCAAUAAACUUGUUCAACAGAGGAUUGAGCAUCA
B6: chr20:63196482:63196583:-|3pUTR|ENSG00000149658|msi1|FALSE|unique (ssRNA)
RNA: GGGAGUUCUACAGUCCGACGAUCUGAUUUUUGCCCAGAUGGAUCUGCAUUUAUUUGUACUUUUUCUAUGUAUUAUAAUCCUGUAGAAGUCACUAAUAAAGGAGUAUUUUUUUUGUCAGCUUAUCAAUCAGACUGAUCUAAUGUCAACAGAGGAUUGAGCAUCA

Consider six molecules from PMC12136788.

The list shows a part of the results.

In this test the target is MSI1 full-length (mouse, UniProt Q61474 1-362). As to the kind of experiment: nsRBNS (natural sequence RNA bind-n-seq); RBNS binding buffer (assumed for nsRBNS): 25 mM Tris pH 7.5, 150 mM KCl, 3 mM MgCl2, 0.01% Triton X-100, 500 ug/ml BSA, 20 U/ml SUPERase-In, 4 C; UNK is unkempt and MSI1 is Musashi-1; names of the RNAs are library labels; protein concentration not given here; high values mean tight binding.
UniProt Q61474, sequence (Q61474 whole entry): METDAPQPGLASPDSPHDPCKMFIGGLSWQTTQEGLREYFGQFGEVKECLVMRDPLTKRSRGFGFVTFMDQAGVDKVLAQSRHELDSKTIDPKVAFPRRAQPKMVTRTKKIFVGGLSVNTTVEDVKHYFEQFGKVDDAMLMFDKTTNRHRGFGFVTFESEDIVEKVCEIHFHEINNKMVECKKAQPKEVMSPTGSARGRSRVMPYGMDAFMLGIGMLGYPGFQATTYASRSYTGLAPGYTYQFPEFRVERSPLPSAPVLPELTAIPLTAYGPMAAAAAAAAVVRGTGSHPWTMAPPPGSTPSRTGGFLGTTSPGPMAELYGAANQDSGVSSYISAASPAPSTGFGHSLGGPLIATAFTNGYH
Turning to B1, the binding signal came to 0.516 enrichment R. For the molecule B2, the binding signal worked out at 0.173 enrichment R. Turning to B3, the binding signal was determined as 0.221 enrichment R.

B4 registered a binding signal of 1.57 enrichment R.

In turn, B5 had a binding signal of 4.24 enrichment R. Molecule B6 gave a binding signal of 1.04 enrichment R.
